Results on three molecules are retold here after article PMC10629813.

The chains behind the UniProt entries cited, without tags or fusion partners.
UniProt Q13263: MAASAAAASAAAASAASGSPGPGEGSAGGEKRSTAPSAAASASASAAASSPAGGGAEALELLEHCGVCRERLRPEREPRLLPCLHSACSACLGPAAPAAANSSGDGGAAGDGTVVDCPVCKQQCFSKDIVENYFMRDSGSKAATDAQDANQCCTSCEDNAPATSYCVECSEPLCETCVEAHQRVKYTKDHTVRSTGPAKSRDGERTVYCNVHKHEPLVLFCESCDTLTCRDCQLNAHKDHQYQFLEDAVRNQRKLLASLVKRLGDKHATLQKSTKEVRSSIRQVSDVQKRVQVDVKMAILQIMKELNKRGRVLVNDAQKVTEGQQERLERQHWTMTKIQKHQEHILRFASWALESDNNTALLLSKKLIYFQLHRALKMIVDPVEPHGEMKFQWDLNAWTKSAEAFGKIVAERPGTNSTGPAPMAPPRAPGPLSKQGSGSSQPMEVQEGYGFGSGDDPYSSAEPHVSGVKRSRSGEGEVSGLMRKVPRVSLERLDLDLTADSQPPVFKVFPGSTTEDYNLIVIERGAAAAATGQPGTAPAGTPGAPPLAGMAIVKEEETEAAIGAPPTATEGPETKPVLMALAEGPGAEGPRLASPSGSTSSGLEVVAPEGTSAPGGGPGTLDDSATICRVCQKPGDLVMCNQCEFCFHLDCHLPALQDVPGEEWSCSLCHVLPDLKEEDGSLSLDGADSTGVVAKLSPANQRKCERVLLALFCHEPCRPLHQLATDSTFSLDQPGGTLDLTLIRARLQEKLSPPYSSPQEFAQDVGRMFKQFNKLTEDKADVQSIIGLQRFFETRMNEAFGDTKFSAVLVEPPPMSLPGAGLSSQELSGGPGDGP

These are yes or no findings as the source states them, for the method shown. In cells and extracts the contact can be indirect. Some results given as binding are weak or reduced against the parent protein; the word gives no strength. For some of these results: Tags and fused reporters may be left off the sequences shown.

The target in experiment [1] is T1, ZMYM3 (endogenous, U2OS cells) (human (endogenous in U2OS)) (UniProt Q14202).
T1 sequence: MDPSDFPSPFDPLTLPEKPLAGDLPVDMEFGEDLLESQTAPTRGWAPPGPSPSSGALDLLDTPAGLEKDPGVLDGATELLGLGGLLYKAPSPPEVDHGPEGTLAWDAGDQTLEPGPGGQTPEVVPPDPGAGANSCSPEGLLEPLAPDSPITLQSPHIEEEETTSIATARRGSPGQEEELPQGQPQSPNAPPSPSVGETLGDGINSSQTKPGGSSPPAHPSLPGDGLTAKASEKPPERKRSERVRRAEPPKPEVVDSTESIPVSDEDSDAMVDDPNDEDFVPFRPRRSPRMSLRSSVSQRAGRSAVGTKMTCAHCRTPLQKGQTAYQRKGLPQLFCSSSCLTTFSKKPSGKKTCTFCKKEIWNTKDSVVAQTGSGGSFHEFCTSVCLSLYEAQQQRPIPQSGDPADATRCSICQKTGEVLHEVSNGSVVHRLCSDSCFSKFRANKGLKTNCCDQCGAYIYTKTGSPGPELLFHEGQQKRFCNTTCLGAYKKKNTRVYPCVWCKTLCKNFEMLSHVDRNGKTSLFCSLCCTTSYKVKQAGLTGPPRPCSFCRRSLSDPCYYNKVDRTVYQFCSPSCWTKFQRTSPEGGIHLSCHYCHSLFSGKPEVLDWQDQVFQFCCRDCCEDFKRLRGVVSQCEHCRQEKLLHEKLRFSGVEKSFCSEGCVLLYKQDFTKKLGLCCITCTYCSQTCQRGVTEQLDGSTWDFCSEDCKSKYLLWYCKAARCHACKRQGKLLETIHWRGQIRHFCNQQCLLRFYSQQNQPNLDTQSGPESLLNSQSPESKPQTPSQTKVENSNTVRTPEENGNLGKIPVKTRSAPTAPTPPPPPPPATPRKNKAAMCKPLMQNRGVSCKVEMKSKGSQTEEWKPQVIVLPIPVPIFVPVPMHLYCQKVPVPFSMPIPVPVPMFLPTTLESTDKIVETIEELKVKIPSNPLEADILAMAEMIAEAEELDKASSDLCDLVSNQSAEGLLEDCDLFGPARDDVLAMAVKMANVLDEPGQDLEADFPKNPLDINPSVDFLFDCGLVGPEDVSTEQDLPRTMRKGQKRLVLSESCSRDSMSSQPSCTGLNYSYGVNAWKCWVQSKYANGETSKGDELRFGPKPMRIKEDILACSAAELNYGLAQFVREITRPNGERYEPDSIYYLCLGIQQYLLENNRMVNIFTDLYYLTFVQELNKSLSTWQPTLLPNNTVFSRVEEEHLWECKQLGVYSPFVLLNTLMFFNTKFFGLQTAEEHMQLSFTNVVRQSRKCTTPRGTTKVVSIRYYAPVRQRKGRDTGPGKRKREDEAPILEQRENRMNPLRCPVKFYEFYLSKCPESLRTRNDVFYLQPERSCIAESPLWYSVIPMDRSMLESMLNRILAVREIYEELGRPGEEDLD
The experiment can be described thus: co-IP; IP with ZMYM2 or ZMYM3 antibody or control IgG from U2OS cells, immunoblot; NEM added to the extracts.

For experiment [2], the target named is T2, ZMYM2 (endogenous, U2OS cells) (human (endogenous in U2OS)) (UniProt Q9UBW7).
T2 sequence: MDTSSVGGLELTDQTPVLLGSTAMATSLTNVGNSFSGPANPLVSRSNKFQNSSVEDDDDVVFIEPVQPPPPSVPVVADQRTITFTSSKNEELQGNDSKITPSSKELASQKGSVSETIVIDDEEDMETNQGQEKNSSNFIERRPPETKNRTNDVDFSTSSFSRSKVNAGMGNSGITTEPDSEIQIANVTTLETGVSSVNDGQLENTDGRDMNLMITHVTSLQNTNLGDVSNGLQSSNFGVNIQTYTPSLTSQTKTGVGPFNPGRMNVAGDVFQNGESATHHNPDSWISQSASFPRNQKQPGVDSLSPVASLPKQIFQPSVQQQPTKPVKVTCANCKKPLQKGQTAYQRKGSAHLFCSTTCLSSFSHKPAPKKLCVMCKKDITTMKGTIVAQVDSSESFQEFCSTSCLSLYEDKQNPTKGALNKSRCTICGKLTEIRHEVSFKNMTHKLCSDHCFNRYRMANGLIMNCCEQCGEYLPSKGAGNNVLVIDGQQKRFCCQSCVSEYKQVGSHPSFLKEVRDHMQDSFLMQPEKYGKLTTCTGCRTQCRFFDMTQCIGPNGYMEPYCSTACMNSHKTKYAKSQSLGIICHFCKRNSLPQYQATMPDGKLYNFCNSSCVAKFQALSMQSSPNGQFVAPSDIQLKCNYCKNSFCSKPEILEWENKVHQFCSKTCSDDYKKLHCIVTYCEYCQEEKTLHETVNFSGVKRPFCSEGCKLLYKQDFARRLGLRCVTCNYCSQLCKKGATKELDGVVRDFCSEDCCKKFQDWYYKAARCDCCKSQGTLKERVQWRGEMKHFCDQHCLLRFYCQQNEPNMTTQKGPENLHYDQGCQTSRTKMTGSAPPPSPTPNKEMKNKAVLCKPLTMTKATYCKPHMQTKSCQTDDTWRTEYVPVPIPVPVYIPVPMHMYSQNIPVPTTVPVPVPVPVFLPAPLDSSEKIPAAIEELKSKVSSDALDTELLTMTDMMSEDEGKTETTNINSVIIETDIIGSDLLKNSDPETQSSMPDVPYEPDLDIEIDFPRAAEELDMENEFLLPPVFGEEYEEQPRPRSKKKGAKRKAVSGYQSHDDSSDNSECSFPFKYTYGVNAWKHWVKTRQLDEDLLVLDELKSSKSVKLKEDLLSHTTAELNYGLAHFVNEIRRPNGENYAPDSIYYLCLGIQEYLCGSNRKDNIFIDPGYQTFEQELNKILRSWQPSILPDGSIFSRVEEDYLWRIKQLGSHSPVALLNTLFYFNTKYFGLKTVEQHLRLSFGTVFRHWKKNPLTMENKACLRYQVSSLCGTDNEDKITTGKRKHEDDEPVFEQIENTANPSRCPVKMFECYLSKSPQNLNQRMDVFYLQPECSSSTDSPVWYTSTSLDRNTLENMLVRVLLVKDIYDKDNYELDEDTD
The description is as above.

For another experiment, the target named is T3, Myc-tagged ZMYM2 (UniProt Q9UBW7).
T3 sequence: T2 sequence
Put plainly: proximity ligation; In situ PLA (Duolink-II) in fixed, permeabilised U2OS cells transfected with Myc-ZMYM2; anti-c-myc (9e10) and anti-KAP1 antibodies; untransfected cells as control.

Experiment [3] deals with T2, ZMYM2 (endogenous, U2OS cells) (human (endogenous in U2OS)). Put plainly: condition: only without NEM (standard conditions, SUMO conjugates not preserved); co-IP; IP with ZMYM2 antibody or control IgG from U2OS cells, immunoblot; standard conditions, no NEM added to the extracts. A general note: In western blotting, separated proteins are transferred to a membrane and probed.

The target in experiment [4] is TRIM28 (endogenous, HEK293T cells) (human (endogenous in HEK293T)) (UniProt Q13263). The experiment can be described thus: co-IP; HEK293T cells transfected 24 hr with EGFP-tagged ZMYM2 plasmids; lysates with protease inhibitors and 20 mM NEM; IP with TRIM28 antibody, immunoblot with GFP and TRIM28 antibodies.
The target of experiment [5] is T1, ZMYM3 (endogenous, U2OS cells) (human (endogenous in U2OS)). Put plainly: co-IP; IP with ZMYM2 or ZMYM3 antibody or control IgG from U2OS cells, immunoblot; NEM not mentioned.
Experiment [6] has as its target T2, ZMYM2 (endogenous, U2OS cells) (human (endogenous in U2OS)). The description is as above.

Consider “TRIM28 (endogenous, U2OS cells) (from UniProt Q13263 1-835)”, for which the binding entry in experiment [1] was “binds”; in experiment [2], “binds”; with Myc-tagged ZMYM2, “binds”; in experiment [3] it was “no binding”.

B1: EGFP-ZMYM2(WT) (protein, UniProt Q9UBW7 1-1377)
chain: T2 sequence
B1: in experiment [4], the binding entry is reported as “binds”.

B2: ADNP (endogenous, U2OS cells) (protein, UniProt Q9H2P0 1-1102)
chain: MFQLPVNNLGSLRKARKTVKKILSDIGLEYCKEHIEDFKQFEPNDFYLKNTTWEDVGLWDPSLTKNQDYRTKPFCCSACPFSSKFFSAYKSHFRNVHSEDFENRILLNCPYCTFNADKKTLETHIKIFHAPNASAPSSSLSTFKDKNKNDGLKPKQADSVEQAVYYCKKCTYRDPLYEIVRKHIYREHFQHVAAPYIAKAGEKSLNGAVPLGSNAREESSIHCKRCLFMPKSYEALVQHVIEDHERIGYQVTAMIGHTNVVVPRSKPLMLIAPKPQDKKSMGLPPRIGSLASGNVRSLPSQQMVNRLSIPKPNLNSTGVNMMSSVHLQQNNYGVKSVGQGYSVGQSMRLGLGGNAPVSIPQQSQSVKQLLPSGNGRSYGLGSEQRSQAPARYSLQSANASSLSSGQLKSPSLSQSQASRVLGQSSSKPAAAATGPPPGNTSSTQKWKICTICNELFPENVYSVHFEKEHKAEKVPAVANYIMKIHNFTSKCLYCNRYLPTDTLLNHMLIHGLSCPYCRSTFNDVEKMAAHMRMVHIDEEMGPKTDSTLSFDLTLQQGSHTNIHLLVTTYNLRDAPAESVAYHAQNNPPVPPKPQPKVQEKADIPVKSSPQAAVPYKKDVGKTLCPLCFSILKGPISDALAHHLRERHQVIQTVHPVEKKLTYKCIHCLGVYTSNMTASTITLHLVHCRGVGKTQNGQDKTNAPSRLNQSPSLAPVKRTYEQMEFPLLKKRKLDDDSDSPSFFEEKPEEPVVLALDPKGHEDDSYEARKSFLTKYFNKQPYPTRREIEKLAASLWLWKSDIASHFSNKRKKCVRDCEKYKPGVLLGFNMKELNKVKHEMDFDAEWLFENHDEKDSRVNASKTADKKLNLGKEDDSSSDSFENLEEESNESGSPFDPVFEVEPKISNDNPEEHVLKVIPEDASESEEKLDQKEDGSKYETIHLTEEPTKLMHNASDSEVDQDDVVEWKDGASPSESGPGSQQVSDFEDNTCEMKPGTWSDESSQSEDARSSKPAAKKKATMQGDREQLKWKNSSYGKVEGFWSKDQSQWKNASENDERLSNPQIEWQNSTIDSEDGEQFDNMTDGVAEPMHGSLAGVKLSSQQA
As for B2, the binding entry in experiment [5] and in experiment [6] was “binds” in each case.
